The target in this assay is GTPase KRas (Homo sapiens) (UniProt P01116). Put plainly: Covalent labelling of cysteine mutants by fragments, read by mass spectrometry (AID 2202238). Also on record: protein at 5 µM with 500 µM competing thiol for 1.5 h. As to conditions: KRAS G12D cysteine mutants, disulfide tethering, MALDI-TOF labeling, stronger effect = higher value, fragment at 500 µM.
[1] abbreviates: measured here: G60C mutant labeling.
Where [2] appears, read: measured here: G75C mutant labeling.
[3] abbreviates: measured here: H94C mutant labeling.
Where [4] appears, read: measured here: I36C mutant labeling.
The mark [5] stands for this setting: measured here: L120C mutant labeling.
[6] abbreviates: measured here: M67C mutant labeling.
Where [7] appears, read: measured here: M72C mutant labeling.
[8] abbreviates: measured here: N26C mutant labeling.
Where [9] appears, read: measured here: N86C mutant labeling.
Setting [10] is: measured here: P121C mutant labeling.
The mark [11] stands for this setting: measured here: S122C mutant labeling.
The mark [12] stands for this setting: measured here: S136C mutant labeling.

For 23 molecules, percent labeling results are on record in PubChem BioAssay AID2202238 (Ras Initiative Chemistry Research Team, Frederick National …, 2025).

The list shows a part of the results. The main result of the screen is listed elsewhere. These columns were measured beside it and carry no call.

UniProt P01116, sequence (P01116 whole entry, looked up, the tested form may be a part): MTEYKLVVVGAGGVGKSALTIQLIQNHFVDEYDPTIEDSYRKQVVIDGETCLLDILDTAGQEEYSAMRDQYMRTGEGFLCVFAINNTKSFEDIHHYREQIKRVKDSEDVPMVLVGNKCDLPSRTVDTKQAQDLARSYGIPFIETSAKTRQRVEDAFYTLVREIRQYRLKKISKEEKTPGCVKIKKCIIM

Regarding `O=C(NCCS)c1ccn(CCC(F)(F)F)n1`, the percent labeling reads like this: under setting [1], 29.9%; under setting [2], 17.7%; under setting [3], 36.2%; under setting [4], 23.4%; under setting [5], 51%; under setting [6], 26.3%. The percent labeling by setting is: under setting [7], 32.1%; under setting [8], 39.5%; under setting [9], 29%; under setting [10], 30.4%; under setting [11], 34.2%; under setting [12], 40.5%.
Turning to `Cc1nn(Cn2ccc(C(=O)NCCS)n2)c(C)c1Br`, the percent labeling is 33.8% under setting [1]; 25.8% under setting [2]; 18.5% under setting [3]; 17.1% under setting [4]; 28.9% under setting [5]; 26.7% under setting [6]. Further, the percent labeling reads like this: under setting [7], 38.4%; under setting [8], 33.4%; under setting [9], 15.1%; under setting [10], 17.3%; under setting [11], 19.6%; under setting [12], 25.7%.
On to `CNC(=O)c1cc(Oc2cccc(NC(=O)CCS)c2)ccn1`, for which the percent labeling runs as follows: under setting [2], 11.1%; under setting [3], 22.2%; under setting [4], 23.2%; under setting [5], 17.1%; under setting [6], 18.7%; under setting [7], 40.1%. For the same molecule, the percent labeling under setting [9] was determined as 12.5%, the percent labeling under setting [10] was determined as 17.5%, the percent labeling under setting [11] worked out at 10.9% and the percent labeling under setting [12] came out at 26.7%.
Take `COc1ccc([C@@H]2C[C@H]2CC(=O)NCCS)cc1`: the percent labeling turned out to be 39.2% under setting [1]; 11.1% under setting [2]; 17.4% under setting [3]; 12.2% under setting [4]; 23.3% under setting [5]; 17.3% under setting [6]. In addition, the percent labeling under setting [7] was found to be 22.7%; the percent labeling under setting [8] turned out to be 27.7%; the percent labeling under setting [9] was 6.5%; the percent labeling under setting [10] was determined as 16.7%; the percent labeling under setting [11] worked out at 9.8%; the percent labeling under setting [12] was found to be 21%.
On to `CC(C)(C)c1csc(CC2(O)CC3CCC(C2)N3C(=O)CCS)n1` (stereo unspecified), for which the percent labeling runs as follows: under setting [2], 20.2%; under setting [3], 35%; under setting [4], 30.4%; under setting [5], 26.7%; under setting [6], 42.6%; under setting [7], 31.5%. Moreover, the percent labeling was 25.9% under setting [9], 27.2% under setting [10], 27.1% under setting [11] and 62.4% under setting [12].
As for `CC(O)C(NC(=O)c1cc(Cl)ccc1Cl)C(=O)NCCS` (stereo unspecified), the percent labeling amounted to 39.9% under setting [1]; 4.6% under setting [2]; 29.6% under setting [3]; 21.9% under setting [4]; 44% under setting [5]; 29.5% under setting [6]. Moreover, the percent labeling reads like this: under setting [7], 19.6%; under setting [8], 32.2%; under setting [9], 20.9%; under setting [10], 23.7%; under setting [11], 29.7%; under setting [12], 37%.
For `O=C(NCCS)c1cc(Oc2ccccc2)ccn1`, the percent labeling was 23.4% under setting [1]; 16% under setting [2]; 16.1% under setting [3]; 7.7% under setting [4]; 24.3% under setting [5]; 13.5% under setting [6]. The percent labeling under setting [7] was 49%; the percent labeling under setting [8] was determined as 24.6%; the percent labeling under setting [9] worked out at 11.8%; the percent labeling under setting [10] worked out at 15.4%; the percent labeling under setting [11] came to 9.6%; the percent labeling under setting [12] worked out at 21%.
`Nc1nc(C2CC2)nc(N2CCN(C(=O)CCS)CC2)n1`: the percent labeling is 23.8% under setting [2]; 38.7% under setting [3]; 46.5% under setting [4]; 34.6% under setting [5]; 50.3% under setting [6]; 34.3% under setting [7]. The percent labeling by setting is: under setting [9], 40.5%; under setting [10], 31.9%; under setting [11], 29.3%; under setting [12], 75.6%.
`N#CCCN(CC1CCN(Cc2ccccc2)CC1)C(=O)CCS` gave a percent labeling under setting [2] of 14.5%; a percent labeling under setting [3] of 33.1%; a percent labeling under setting [4] of 52.6%; a percent labeling under setting [5] of 25.1%; a percent labeling under setting [6] of 67.4%; a percent labeling under setting [7] of 26.3%. In addition, the percent labeling was determined as 33.1% under setting [9], 28.1% under setting [10], 29.5% under setting [11] and 57.2% under setting [12].
In turn, `COc1ccc2c(c1)CCCC2C(=O)NCCS` (stereo unspecified) registered a percent labeling under setting [1] of 49.4%; a percent labeling under setting [2] of 16.5%; a percent labeling under setting [3] of 32.2%; a percent labeling under setting [4] of 18.6%; a percent labeling under setting [5] of 33.9%; a percent labeling under setting [6] of 25.3%. For the same molecule, the percent labeling under setting [7] came to 24.2%; the percent labeling under setting [8] stood at 37%; the percent labeling under setting [9] came to 20.7%; the percent labeling under setting [10] is 21.3%; the percent labeling under setting [11] turned out to be 21.9%; the percent labeling under setting [12] was determined as 39.5%.
Consider `O=C(CCS)N1CCC(O)(Cn2ccnn2)CC1`, for which the percent labeling is, setting by setting: under setting [2], 6.8%; under setting [3], 25.2%; under setting [4], 35.2%; under setting [5], 31.6%; under setting [6], 36.4%; under setting [7], 13.3%. For the same molecule, the percent labeling worked out at 23.9% under setting [9], 33.3% under setting [10], 31.1% under setting [11] and 44.4% under setting [12].
Regarding `O=C(CCNC(=O)c1cnccn1)NCCS`, the percent labeling is, setting by setting: under setting [1], 20.9%; under setting [2], 13.2%; under setting [3], 24.9%; under setting [4], 23.3%; under setting [5], 29.4%; under setting [6], 24.4%. Moreover, the percent labeling was 10.2% under setting [7]; 27% under setting [8]; 20.3% under setting [9]; 29.8% under setting [10]; 27.3% under setting [11]; 37% under setting [12].
Consider `O=C(CCCN1C(=O)CCc2ccccc21)NCCS`, for which the percent labeling is, setting by setting: under setting [1], 52.6%; under setting [2], 24.5%; under setting [3], 39.2%; under setting [4], 30%; under setting [5], 49.6%; under setting [6], 46.7%. Besides, the percent labeling runs as follows: under setting [7], 54.6%; under setting [8], 44.3%; under setting [9], 28.8%; under setting [10], 39.4%; under setting [11], 36.8%; under setting [12], 62%.
Turning to `COc1ccc(C)cc1-n1cc(C(=O)NCCS)ccc1=O`, the percent labeling runs as follows: under setting [1], 23.5%; under setting [2], 11.9%; under setting [3], 24.6%; under setting [4], 25.9%; under setting [5], 27.5%; under setting [6], 22.3%. Moreover, the percent labeling is, setting by setting: under setting [7], 41.9%; under setting [8], 37.1%; under setting [9], 14.1%; under setting [10], 20.5%; under setting [11], 16.8%; under setting [12], 57%.
`O=C1CC(C(=O)NCCS)(c2ccccc2)CN1` (stereo unspecified): the percent labeling was 33.3% under setting [1]; 13.6% under setting [2]; 31.7% under setting [3]; 25.8% under setting [4]; 39.6% under setting [5]; 29.4% under setting [6]. Moreover, the percent labeling stood at 25% under setting [7]; 37.4% under setting [8]; 20.9% under setting [9]; 33.5% under setting [10]; 31.6% under setting [11]; 58.1% under setting [12].
Consider `Cn1cc(CCC(=O)NCCS)c2ccccc21`, for which the percent labeling stood at 40.6% under setting [1]; 15.6% under setting [2]; 25.7% under setting [3]; 19.1% under setting [4]; 21.6% under setting [5]; 34.3% under setting [6]. In addition, the percent labeling runs as follows: under setting [7], 35.6%; under setting [8], 30.3%; under setting [9], 5.4%; under setting [10], 21.5%; under setting [11], 20.6%; under setting [12], 38.4%.
As for `O=C(CCS)NCCc1ccc2ncccc2c1`, the percent labeling runs as follows: under setting [2], 21.4%; under setting [3], 31.4%; under setting [4], 40.1%; under setting [5], 27.5%; under setting [6], 39.5%; under setting [7], 34.7%. The percent labeling came out at 31.2% under setting [9], 30% under setting [10], 32% under setting [11] and 48.8% under setting [12].
As for `O=C(NCCS)C1(c2ccccc2)CC2(CCC2)C1`, the percent labeling reads like this: under setting [1], 36.4%; under setting [2], 11.9%; under setting [3], 12.7%; under setting [4], 11.9%; under setting [5], 20.1%; under setting [6], 12%. Further, the percent labeling runs as follows: under setting [7], 22.6%; under setting [8], 25.6%; under setting [9], 8.1%; under setting [10], 13%; under setting [11], 12.3%; under setting [12], 29.2%.
As for `O=C(CCS)NCC1CCN(C(=O)c2ccccc2)CC1`, the percent labeling by setting is: under setting [2], 13.8%; under setting [3], 36.8%; under setting [4], 51.1%; under setting [5], 32%; under setting [6], 60.1%; under setting [7], 30.3%. Moreover, the percent labeling reads like this: under setting [9], 26.8%; under setting [10], 36.2%; under setting [11], 39.6%; under setting [12], 54.3%.
Consider `CC(Cn1cccn1)(NC(=O)CCS)C(N)=O` (stereo unspecified), for which the percent labeling amounted to 0% under setting [2]; 29.1% under setting [3]; 44.7% under setting [4]; 28.3% under setting [5]; 26.1% under setting [6]; 14% under setting [7]. Also, the percent labeling is 22.2% under setting [9], 30.2% under setting [10], 31.5% under setting [11] and 44.6% under setting [12].
As to `O=C(CCS)NCc1cccc(-c2ccccn2)c1`, the percent labeling runs as follows: under setting [2], 19%; under setting [3], 33.5%; under setting [4], 47.2%; under setting [5], 24.1%; under setting [6], 46%; under setting [7], 44.2%. For the same molecule, the percent labeling came to 26% under setting [9], 33.3% under setting [10], 25.4% under setting [11] and 53.6% under setting [12].
Consider `O=C(CCS)N1CCC(Oc2ccccc2Cl)CC1`, for which the percent labeling was determined as 31.5% under setting [2]; 27.8% under setting [3]; 21.5% under setting [4]; 19.6% under setting [5]; 68.9% under setting [6]; 36.6% under setting [7]. Moreover, the percent labeling is, setting by setting: under setting [9], 21.4%; under setting [10], 22.4%; under setting [11], 17.4%; under setting [12], 42.8%.
For the molecule `Cc1c(C(=O)NCCS)ccc2c1OC(F)(F)O2`, the percent labeling amounted to 50.4% under setting [1]; 11.3% under setting [2]; 18.9% under setting [3]; 15.5% under setting [4]; 18.3% under setting [5]; 13.7% under setting [6]. In addition, the percent labeling worked out at 51.3% under setting [7]; 35.6% under setting [8]; 14.7% under setting [9]; 23% under setting [10]; 15.4% under setting [11]; 22.6% under setting [12].
